Reference: PMC4336329 (PLoS ONE, 2015)
About 2,200 (0.71%) of roughly 310,000 compounds showed an effect of 50% or more. Effects have a minus sign here. The list shows a part of the results.

These molecules were tested against human ether-à-go-go-related gene (hERG) potassium channel (human, UniProt Q12809) (assay: primary screen, population patch clamp on CHO cells stably expressing hERG).
human ether-à-go-go-related gene (hERG) potassium channel, sequence (Q12809 whole entry, looked up): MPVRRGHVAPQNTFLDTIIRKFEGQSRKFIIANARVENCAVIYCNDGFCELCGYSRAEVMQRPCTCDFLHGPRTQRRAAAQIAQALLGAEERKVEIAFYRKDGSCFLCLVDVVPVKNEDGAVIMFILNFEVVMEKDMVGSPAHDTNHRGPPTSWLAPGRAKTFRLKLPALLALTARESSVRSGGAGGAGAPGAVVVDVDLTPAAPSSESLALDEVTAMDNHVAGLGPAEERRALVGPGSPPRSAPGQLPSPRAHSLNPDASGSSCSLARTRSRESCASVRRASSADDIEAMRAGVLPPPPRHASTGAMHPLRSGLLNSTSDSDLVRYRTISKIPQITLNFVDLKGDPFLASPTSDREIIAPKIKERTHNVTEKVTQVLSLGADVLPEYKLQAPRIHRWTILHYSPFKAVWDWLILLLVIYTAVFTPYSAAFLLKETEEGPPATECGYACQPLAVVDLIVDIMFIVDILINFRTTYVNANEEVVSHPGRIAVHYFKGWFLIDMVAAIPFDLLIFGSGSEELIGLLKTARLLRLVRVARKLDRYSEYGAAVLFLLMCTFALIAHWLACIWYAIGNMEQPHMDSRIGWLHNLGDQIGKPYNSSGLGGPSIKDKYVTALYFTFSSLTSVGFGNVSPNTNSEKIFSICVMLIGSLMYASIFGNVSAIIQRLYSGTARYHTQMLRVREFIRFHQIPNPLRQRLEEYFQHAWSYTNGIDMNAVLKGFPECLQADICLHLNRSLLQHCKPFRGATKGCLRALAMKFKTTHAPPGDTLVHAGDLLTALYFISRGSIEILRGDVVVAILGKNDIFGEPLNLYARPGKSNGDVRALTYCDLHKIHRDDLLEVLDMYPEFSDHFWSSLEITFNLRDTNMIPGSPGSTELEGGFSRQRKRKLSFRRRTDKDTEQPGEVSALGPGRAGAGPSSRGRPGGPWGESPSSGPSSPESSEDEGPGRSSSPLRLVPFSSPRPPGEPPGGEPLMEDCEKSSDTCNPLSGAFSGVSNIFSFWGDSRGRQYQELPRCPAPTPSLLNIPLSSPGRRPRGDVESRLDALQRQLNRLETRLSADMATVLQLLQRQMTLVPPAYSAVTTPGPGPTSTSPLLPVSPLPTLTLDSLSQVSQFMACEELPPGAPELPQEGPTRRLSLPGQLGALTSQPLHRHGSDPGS
With `CCc1nnc(NS(=O)(=O)c2ccc(Nc3ccc4nonc4c3[N+](=O)[O-])cc2)s1` the “hERG current change (%, negative = inhibition) at 1uM” value was 13.3%.
With `O=C(NCc1ccco1)/C(=C\c1ccccc1)NC(=O)c1ccccc1` the “hERG current change (%, negative = inhibition) at 1uM” value was 13.9%.
For `Cc1c(C)c2c(OCC(=O)NCC(=O)NCC(=O)O)cc3c(c2oc1=O)CCC(C)(C)O3`, the “hERG current change (%, negative = inhibition) at 1uM” value was 11.9%.
In the case of `O=C(Cn1ccc([N+](=O)[O-])n1)NCc1ccccc1`, the “hERG current change (%, negative = inhibition) at 1uM” value is reported as 12.2%.
With `O=C(O)c1cccc2c1C(=O)N(C1CCCCC1)C2` the “hERG current change (%, negative = inhibition) at 1uM” value was -6.48%.
`Cc1ccc(C)c(SCC(=O)OCC(=O)Nc2ccc(S(=O)(=O)N3CCOCC3)cc2)c1` was tested, and the “hERG current change (%, negative = inhibition) at 1uM” value was 19.6%.
`O=C(CSCc1ccc(Cl)cc1)NCc1ccccn1` was tested, and the “hERG current change (%, negative = inhibition) at 1uM” value was 9.26%.
With `COc1ccc(CCNC(=O)c2c(O)c3cccc4c3n(c2=O)CC4)cc1` the “hERG current change (%, negative = inhibition) at 1uM” value was 2.5%.
With `Cl.O=C(c1cccc(S(=O)(=O)NCc2ccccc2)c1)N1CCN(Cc2ccccc2)CC1` the “hERG current change (%, negative = inhibition) at 1uM” value was -0.767%.
`COCCN1C(=O)c2oc3ccccc3c(=O)c2C1c1cccc(O)c1` (centres unmarked) was tested, and the “hERG current change (%, negative = inhibition) at 1uM” value was 10.6%.
With `CCOC(=O)c1ccc(COC(=O)c2ccc3c(c2)-c2ccccc2C3=O)cc1` the “hERG current change (%, negative = inhibition) at 1uM” value was 10.1%.
`Nc1ncc([N+](=O)[O-])s1` was tested, and the “hERG current change (%, negative = inhibition) at 1uM” value was 11.3%.
For `O=C(N/N=C/c1ccc(OC(=O)c2ccccc2Cl)cc1)c1ccccn1`, the “hERG current change (%, negative = inhibition) at 1uM” value was 5.52%.
With `Cc1ccc(Cn2c(CN3CCOCC3)nc3c2c(=O)[nH]c(=O)n3C)cc1` the “hERG current change (%, negative = inhibition) at 1uM” value was -2.6%.
`Cc1cc(C)n(CC(C)NC(=O)c2cc(COc3c(F)cccc3F)on2)n1` (centres unmarked) was tested, and the “hERG current change (%, negative = inhibition) at 1uM” value was 4.74%.
With `Cc1ccc(C)c(N2CCN(c3ncccc3[N+](=O)[O-])CC2)c1` the “hERG current change (%, negative = inhibition) at 1uM” value was 1.38%.
In the case of `Cc1ccc(CNS(=O)(=O)c2ccc3c(c2)CCN3C(=O)CCCC(=O)O)cc1`, the “hERG current change (%, negative = inhibition) at 1uM” value is reported as 4.17%.
In the case of `O=C1CCC(=O)N1c1ccc(-c2nc3ccccc3s2)cc1`, the “hERG current change (%, negative = inhibition) at 1uM” value is reported as 13.6%.
In the case of `COc1cc(C2=NOC(C(=O)NCc3ccco3)C2)cc(OC)c1OC` (centres unmarked), the “hERG current change (%, negative = inhibition) at 1uM” value is reported as -2.53%.
`Cc1ccc(-c2cc3nc(-c4ccc(Br)cc4)cc(N)n3n2)cc1` was tested, and the “hERG current change (%, negative = inhibition) at 1uM” value was 4.38%.
In the case of `CCc1ccc(OCC(=O)Nc2ccc3c(c2)COC3=O)cc1`, the “hERG current change (%, negative = inhibition) at 1uM” value is reported as -6.5%.
For `CCN(CC)C(=O)Cn1cc(SCC(=O)Nc2cc(C)on2)c2ccccc21`, the “hERG current change (%, negative = inhibition) at 1uM” value was 3.18%.
`CC1CCC2(CC1)NC(=O)N(CC(=O)Nc1cccc(S(=O)(=O)N3CCOCC3)c1)C2=O` (centres unmarked) was tested, and the “hERG current change (%, negative = inhibition) at 1uM” value was 8.22%.
In the case of `CCc1cc2ccc(C)cc2nc1SCC(=O)Nc1cc(C)on1`, the “hERG current change (%, negative = inhibition) at 1uM” value is reported as 11.7%.
`CN(C)/C=C/C(=O)c1ccc(Oc2ncccn2)cc1` was tested, and the “hERG current change (%, negative = inhibition) at 1uM” value was 24.7%.
In the case of `COC(=O)c1cccnc1-n1c(=O)c2cccnc2n(CC(=O)Nc2ccc(Br)cc2)c1=O`, the “hERG current change (%, negative = inhibition) at 1uM” value is reported as 5.27%.
`COc1ccc(Cl)cc1NC(=O)c1ccccc1C` was tested, and the “hERG current change (%, negative = inhibition) at 1uM” value was 14.2%.
With `COc1ccc(NC(=O)CSc2ccc3nnc(-c4ccccn4)n3n2)cc1` the “hERG current change (%, negative = inhibition) at 1uM” value was 7.57%.
`O=C(NC1CC2CCCC(C1)N2Cc1ccccc1)c1cccc(F)c1` (centres unmarked) was tested, and the “hERG current change (%, negative = inhibition) at 1uM” value was -29.8%.
`COc1cc2c(cc1NC(=O)CSc1nnc(Cc3cccs3)n1Cc1ccco1)oc1ccccc12` was tested, and the “hERG current change (%, negative = inhibition) at 1uM” value was 3.35%.
For `CNc1ncc(-c2nnnn2-c2ccccc2)c(-c2ccccc2)n1`, the “hERG current change (%, negative = inhibition) at 1uM” value was 8.07%.
In the case of `COc1ccc(N(CC(=O)N2c3ccccc3CC2C)S(=O)(=O)c2c(C)noc2C)cc1` (centres unmarked), the “hERG current change (%, negative = inhibition) at 1uM” value is reported as 9.71%.
For `CCN(CC)C(=S)Nc1ccc2nc3n(c(=O)c2c1)CCCCC3`, the “hERG current change (%, negative = inhibition) at 1uM” value was 0.573%.
For `COc1ccc(-c2c(C)nn3c(-c4ccccc4)cc(C)nc23)cc1`, the “hERG current change (%, negative = inhibition) at 1uM” value was -8.9%.
For `CC(C)(C)c1ccc(OCC(=O)N2CCCCCC2)c(Br)c1`, the “hERG current change (%, negative = inhibition) at 1uM” value was 8.61%.
In the case of `CC1CCN(C(=O)Cn2c(=O)oc3ccccc32)CC1`, the “hERG current change (%, negative = inhibition) at 1uM” value is reported as 7.96%.
In the case of `NC(=O)[C@@H]1CCOc2c(F)cc([N+](=O)[O-])cc2C(=O)N[C@@H](CO)C(=O)NCC(=O)N1`, the “hERG current change (%, negative = inhibition) at 1uM” value is reported as 11.7%.
In the case of `COc1ccc(OCC(=O)Nc2nccs2)cc1`, the “hERG current change (%, negative = inhibition) at 1uM” value is reported as 1.78%.
For `CN1CCN(C(=O)CCN2C(=O)S/C(=C/c3ccc(Cl)cc3)C2=O)CC1`, the “hERG current change (%, negative = inhibition) at 1uM” value was -1.76%.
`O=C1N/C(=N\N=C\c2cccs2)SC1Cc1cccc(Cl)c1Cl` (centres unmarked) was tested, and the “hERG current change (%, negative = inhibition) at 1uM” value was 10.7%.
For `CCCN1CCN(CCCNC(=O)C2CCN(c3nnc(-n4c(C)ccc4C)s3)CC2)CC1`, the “hERG current change (%, negative = inhibition) at 1uM” value was 13.1%.
`COC(=O)N(C)c1ccccc1C(=O)N1CCOCC1` was tested, and the “hERG current change (%, negative = inhibition) at 1uM” value was 10.1%.
With `O=c1nccc(NCc2ccco2)[nH]1` the “hERG current change (%, negative = inhibition) at 1uM” value was -6.89%.
With `C/C(=N/NC(=O)c1cn(-c2cccc(C)n2)cn1)c1ccc(C)cc1` the “hERG current change (%, negative = inhibition) at 1uM” value was 8.18%.
